Reference: PubChem BioAssay AID1768 (National Center for Advancing Translational Sciences (NCATS), 2009)
“And” between values parts separate entries of the source, which are not always exact repeats. Identical values can stand only once. Screen size: about 270,000 compounds; about 620 (0.23%) were called active. The inconclusive results got no clear call from the source; some entries with a clear call stand among them for comparison. Calls follow the shape of the dose curve; as a rule, active = well fitted inhibition curve with a large enough effect in the polarisation, with a control signal flat (not every such curve was filed as active); inconclusive = small, poorly fitted or top-dose-only effect, or effect the other way, or a change in a side signal; inactive = no such curve, though single readings can be large or run the other way; the % refers to the polarisation. Potencies beside an inconclusive call are fits to weak or partial responses and may not hold up. “Side channel” marks fits to a control or component signal instead of the main read-out.
For FP activity change, negative = inhibition in this document: % of control where 0% means no effect.
Potency is read from the fitted curve at half-maximal effect; tags tell the direction and shape of the fitted curve or compound fluorescence and quenching.

What follows are compounds tested against Menin (Homo sapiens) (UniProt O00255) (assay: qHTS Assay for Inhibitors Targeting the Menin-MLL Interaction in MLL Related Leukemias: Competition With Texas Red Labeled MLL-derived Mutant Peptide). Conditions: fluorescence polarization; FP activity change, negative = inhibition: at 61.6 µM (top of the series).
Chain of UniProt O00255 (O00255 whole entry, looked up): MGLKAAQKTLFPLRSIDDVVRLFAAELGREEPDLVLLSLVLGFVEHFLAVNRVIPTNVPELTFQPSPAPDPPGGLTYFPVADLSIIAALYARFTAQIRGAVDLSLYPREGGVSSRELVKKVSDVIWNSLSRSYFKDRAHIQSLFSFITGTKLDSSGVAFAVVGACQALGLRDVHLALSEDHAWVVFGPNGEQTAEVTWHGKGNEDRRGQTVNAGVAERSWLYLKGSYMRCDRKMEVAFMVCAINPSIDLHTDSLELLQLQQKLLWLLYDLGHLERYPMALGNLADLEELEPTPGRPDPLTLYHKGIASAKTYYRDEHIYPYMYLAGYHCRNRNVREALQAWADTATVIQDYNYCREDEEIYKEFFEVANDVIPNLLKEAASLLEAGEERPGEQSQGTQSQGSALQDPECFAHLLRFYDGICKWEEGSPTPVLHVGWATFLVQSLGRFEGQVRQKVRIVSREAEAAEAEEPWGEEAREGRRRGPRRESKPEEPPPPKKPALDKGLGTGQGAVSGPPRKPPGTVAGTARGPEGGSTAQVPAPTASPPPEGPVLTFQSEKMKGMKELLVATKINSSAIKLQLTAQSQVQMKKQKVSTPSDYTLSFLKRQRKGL
With `Oc1ccc(Nc2nc(-c3ccc(Cl)cc3)cs2)cc1` the Potency was inconclusive: 6.31 µM [quencher, side channel, partial curve] and inconclusive: 7.94 µM [quencher, side channel, partial curve].
For `Cc1ccccc1CSc1ncnc2ccccc12`, the Potency was inconclusive: 11.2 µM [fluorescent, side channel, partial curve].
For `O=C(CCCN1C(=O)/C(=C/c2cccs2)SC1=S)NNC(=O)c1ccccc1O`, the Potency was inconclusive: 15.8 µM [quencher, side channel, partial curve].
In the case of `COc1cc(/C=N/N2CCN(Cc3ccc(Cl)cc3)CC2)cc(Br)c1O`, the Potency is reported as inconclusive: 31.6 µM [quencher, side channel, single point].
In the case of `C[n+]1cn(CC(O)COCc2ccccc2)c2ccccc21` (configuration not stated), the “FP activity change, negative = inhibition” value is reported as inactive: -7.77%.
With `COc1ccc(Nc2cc(C(=O)NCc3cccnc3)c3ccccc3n2)c(OC)c1` the Potency was inconclusive: 11.2 µM [quencher, side channel, partial curve].
With `COc1ccc(N2CCN(Cc3cc(=O)oc4cc(C)c(Cl)cc34)CC2)cc1` the Potency was inconclusive: 11.2 µM [inhibitor, partial curve].
For `O=C(CN1CC(=O)Oc2ccccc21)OCC(=O)c1ccccc1`, the “FP activity change, negative = inhibition” value was inactive: 3.22%.
For `O=C(NC(NC(=S)Nc1ccccc1C(=O)O)C(Cl)(Cl)Cl)c1ccccc1` (configuration not stated), the Potency was inconclusive: 22.4 µM [quencher, side channel, single point].
`CN1CCN(S(=O)(=O)c2cccc(C(=O)Nc3sc4c(c3-c3nc5ccccc5[nH]3)CCCC4)c2)CC1` was tested, and the Potency was inconclusive: 8.91 µM [quencher, side channel, partial curve].
With `COc1ccc(NC(=O)c2cc3ccc4c5ccccc5[nH]c4c3cc2O)cc1` the Potency was inconclusive: 4.47 µM [quencher, side channel, partial curve].
For `CC1CCCC(NC(=O)c2ccncc2)C1C` (configuration not stated), the “FP activity change, negative = inhibition” value was inactive: 0.0775%.
In the case of `CCCCC1=CC2=C(c3ccco3)C(=O)C(C)(OC(=O)c3cccs3)C(=O)C2=CO1` (configuration not stated), the Potency is reported as inconclusive: 28.2 µM [quencher, side channel, single point].
In the case of `Cc1ccccn1`, the “FP activity change, negative = inhibition” value is reported as inactive: 1.44%.
`COc1ccc(Nc2nnc(SCC(=O)NC(=O)Nc3ccc4c(c3)OCCO4)s2)cc1` was tested, and the Potency was inconclusive: 7.94 µM [inhibitor, full curve].
In the case of `Cc1cc(=O)n2[nH]c(-c3ccc(Cl)cc3)cc2n1`, the “FP activity change, negative = inhibition” value is reported as inactive: -3.22%.
`Cc1nn2cc(-c3ncc(C(F)(F)F)cc3Cl)cnc2c1Br` was tested, and the Potency was inconclusive: 28.2 µM [fluorescent, side channel, single point].
For `Cc1ccc(-n2c(=O)[nH]c3c(C(N)=O)nc(C(C)C)nc32)cc1`, the Potency was inconclusive: 15.8 µM [fluorescent, side channel, single point].
In the case of `O=C(O)COc1ccc(NC(=O)c2ccc(NC(=O)c3ccco3)cc2)cc1`, the Potency is reported as inconclusive: 17.8 µM [inhibitor, partial curve].
For `O=C(Nc1nccs1)c1cc(-c2ccco2)nc2ccccc12`, the Potency was inconclusive: 20 µM [quencher, side channel, partial curve].
In the case of `O=C(NC(NC(=S)Nc1cccc(Cl)c1)C(Cl)(Cl)Cl)OCc1ccccc1` (configuration not stated), the Potency is reported as inconclusive: 25.1 µM [inhibitor, single point].
For `CCN(Cc1ccncc1)Cc1c(O)ccc2cc(Br)ccc12`, the Potency was inconclusive: 7.08 µM [quencher, side channel, full curve].
`CC(=O)C1=C(O)C(=O)N(c2ccc(Br)cn2)C1c1ccccc1[N+](=O)[O-]` (configuration not stated) was tested, and the Potency was inconclusive: 22.4 µM [quencher, side channel, single point].
`Cc1ccc(S(=O)(=O)NCC(=O)OCC(=O)c2c(N)n(C)c(=O)n(C)c2=O)cc1` was tested, and the Potency was inconclusive: 12.6 µM [inhibitor, single point].
With `O=C(CC12CC3CC(CC(C3)C1)C2)NCc1ccccc1` the Potency was inconclusive: 25.1 µM [fluorescent, side channel, partial curve].
`O=C(c1cnc(N2CCN(c3ccccn3)CC2)c2ccccc12)N1CCN(c2cccc(Cl)c2)CC1` was tested, and the Potency was inconclusive: 1.12 µM [fluorescent, side channel, full curve, poor fit].
`O=C(Nc1ccc(F)cc1)c1nc[nH]c1C(=O)O` was tested, and the “FP activity change, negative = inhibition” value was inactive: 2.68%.
With `O=C(Cc1ccc(F)cc1)Oc1ccc(C(=S)N2CCCC2)cc1` the “FP activity change, negative = inhibition” value was inactive: -1.1%.
With `Cc1cc(C)cc(N=Cc2c(O)c3ccccc3oc2=O)c1` the “FP activity change, negative = inhibition” value was inactive: 1.63%.
With `Nc1c(S(=O)(=O)O)cc(Nc2ccc(Nc3nc(Cl)nc(Nc4ccc(S(=O)(=O)O)cc4)n3)c(S(=O)(=O)O)c2)c2c1C(=O)c1ccccc1C2=O` the Potency was inconclusive: 15.8 µM [quencher, side channel, partial curve].
With `COC(=O)/C(C#N)=C/c1c(N2CCCCCC2)nc2c(C)cccn2c1=O` the Potency was inconclusive: 3.16 µM [inhibitor, full curve].
In the case of `CCOC(=O)c1cc(-c2ccccc2)sc1NC(=S)Nc1cc(C)ccn1`, the Potency is reported as inconclusive: 5.01 µM [quencher, side channel, full curve].
In the case of `Cc1ccc(Oc2ccc3c(c2)C(=O)N(c2ccc(S(=O)(=O)Nc4nccs4)cc2)C3=O)cc1`, the Potency is reported as inconclusive: 31.6 µM [quencher, side channel, partial curve].
`CCCN(C(=O)COc1ccc(Cl)cc1Cl)c1c(N)n(Cc2ccccc2)c(=O)[nH]c1=O` was tested, and the Potency was inconclusive: 39.8 µM [quencher, side channel, single point].
With `CN1/C(=C\C(=O)c2cccnc2)Sc2ccccc21` the Potency was inconclusive: 39.8 µM [inhibitor, single point].
For `Cc1ccc(S(=O)(=O)Nc2ccc(O)c3cccnc23)cc1`, the Potency was inconclusive: 22.4 µM [quencher, side channel, single point].
With `O=C(C1=C[C@@H](C2CC2)C[C@@H](OCCCCO)O1)N1CCN(Cc2ccc3c(c2)OCO3)CC1` the Potency was inconclusive: 12.6 µM [fluorescent, side channel, partial curve].
